Source: PMC4336329 (PLoS ONE, 2015)
In all, about 310,000 compounds went through this assay and about 2,200 (0.71%) showed an effect of 50% or more. Effects have a minus sign here. The list shows a part of the results.

Each compound was assayed against human ether-à-go-go-related gene (hERG) potassium channel (human, UniProt Q12809) (assay: primary screen, population patch clamp on CHO cells stably expressing hERG).
Sequence of human ether-à-go-go-related gene (hERG) potassium channel (Q12809 whole entry, looked up): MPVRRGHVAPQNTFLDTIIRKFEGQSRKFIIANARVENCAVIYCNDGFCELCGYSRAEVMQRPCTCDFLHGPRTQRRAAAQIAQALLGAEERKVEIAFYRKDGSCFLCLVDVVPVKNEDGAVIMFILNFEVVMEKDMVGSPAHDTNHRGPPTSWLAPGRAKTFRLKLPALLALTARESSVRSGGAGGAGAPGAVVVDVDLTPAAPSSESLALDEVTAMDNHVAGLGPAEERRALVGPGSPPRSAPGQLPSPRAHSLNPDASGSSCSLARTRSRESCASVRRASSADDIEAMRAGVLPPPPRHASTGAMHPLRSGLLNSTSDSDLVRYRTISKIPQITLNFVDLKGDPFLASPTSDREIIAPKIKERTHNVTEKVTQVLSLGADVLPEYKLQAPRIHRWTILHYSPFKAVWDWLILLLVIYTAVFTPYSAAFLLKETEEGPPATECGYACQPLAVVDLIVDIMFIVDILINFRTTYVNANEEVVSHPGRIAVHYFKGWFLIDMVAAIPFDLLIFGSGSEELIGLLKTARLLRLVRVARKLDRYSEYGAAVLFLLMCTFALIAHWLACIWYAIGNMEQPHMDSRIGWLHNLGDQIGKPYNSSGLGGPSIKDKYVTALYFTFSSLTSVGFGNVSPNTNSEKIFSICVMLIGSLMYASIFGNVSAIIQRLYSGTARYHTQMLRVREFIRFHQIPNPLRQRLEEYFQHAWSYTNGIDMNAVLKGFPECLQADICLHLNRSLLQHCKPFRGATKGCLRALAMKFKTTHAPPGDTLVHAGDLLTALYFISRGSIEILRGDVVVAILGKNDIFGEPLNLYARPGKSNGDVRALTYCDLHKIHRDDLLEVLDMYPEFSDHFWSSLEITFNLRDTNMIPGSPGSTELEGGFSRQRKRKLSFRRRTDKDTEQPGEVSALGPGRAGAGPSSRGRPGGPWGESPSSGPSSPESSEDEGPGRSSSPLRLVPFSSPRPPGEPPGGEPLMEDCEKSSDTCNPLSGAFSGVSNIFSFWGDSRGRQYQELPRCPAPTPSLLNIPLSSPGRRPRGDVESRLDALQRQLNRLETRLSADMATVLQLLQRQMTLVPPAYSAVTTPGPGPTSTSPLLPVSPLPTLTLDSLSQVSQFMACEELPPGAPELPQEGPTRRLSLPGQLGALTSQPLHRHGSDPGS

For `CC(=O)c1sc(C(C)(C)C)cc1NC(=O)/C=C/C(=O)O`, which “hERG current change (%, negative = inhibition) at 1uM” value is on record?
The value was 14.3%.

With `CCCCc1nccn1CCn1ccnc1CCCC.Cl` as the compound, how does the “hERG current change (%, negative = inhibition) at 1uM” value read?
Its value is 9.1%.

`CC(=O)N1CCc2cc(S(=O)(=O)CCC(=O)N3CCN(c4ccccn4)CC3)ccc21` was tested. Which “hERG current change (%, negative = inhibition) at 1uM” value did it give?
Its value is 5.53%.

With `CCOc1ccccc1N(CC(=O)Nc1cc(OC)ccc1OC)S(C)(=O)=O` as the compound, how does the “hERG current change (%, negative = inhibition) at 1uM” value read?
Its value is -0.805%.

With `COCCNC(=O)c1cc(-c2ccc3c(c2)OCO3)on1` as the compound, how does the “hERG current change (%, negative = inhibition) at 1uM” value read?
The value was 12.6%.

For `CCN1CCN(c2nc(Nc3cc(OC)ccc3OC)nc(Nc3cc(OC)ccc3OC)n2)CC1`, which “hERG current change (%, negative = inhibition) at 1uM” value is on record?
The value was 11.5%.

With `CC(=O)NC(Cc1cnc[nH]1)C(=O)O` (stereo not shown) as the compound, how does the “hERG current change (%, negative = inhibition) at 1uM” value read?
The value was 10.5%.

For `O=C(O)CC1Oc2ccc(Cl)cc2NC1=O` (stereo not shown), which “hERG current change (%, negative = inhibition) at 1uM” value is on record?
The value was 11.4%.

With `CC(=O)c1ccc(N2CCN(C(=O)Nc3ccc(C)cc3)CC2)cc1` as the compound, how does the “hERG current change (%, negative = inhibition) at 1uM” value read?
The value was 8.58%.

Which “hERG current change (%, negative = inhibition) at 1uM” value does the source give for `O=C1c2ccccc2C(=O)N1CC1c2ccccc2CCN1S(=O)(=O)c1ccccc1` (stereo not shown) here?
The value was 7.85%.

Which “hERG current change (%, negative = inhibition) at 1uM” value does the source give for `COc1cccc(C(=O)C2CN(C)CC2c2ccc(Cl)cc2)c1` (stereo not shown) here?
Its value is -3.95%.

`CCCc1nc2c(C)ccc(C)c2c(N)c1CC` was tested. Which “hERG current change (%, negative = inhibition) at 1uM” value did it give?
Its value is -17.4%.

For `CCOC(=O)C1(C)NC(c2ccc(N(C)C)cc2)C2C(=O)N(c3ccc(OC)cc3)C(=O)C21` (stereo not shown), which “hERG current change (%, negative = inhibition) at 1uM” value is on record?
The value was 11.4%.

With `CC(C)N(Cc1nc(-c2ccccc2)no1)C(=O)CN(C)S(=O)(=O)c1ccc(Br)cc1` as the compound, how does the “hERG current change (%, negative = inhibition) at 1uM” value read?
Its value is 12%.

With `O=C(Nc1ccccc1)c1ccc(Br)c(S(=O)(=O)Nc2cccnc2)c1` as the compound, how does the “hERG current change (%, negative = inhibition) at 1uM” value read?
Its value is 13.6%.

`CC(C)c1nnc(NC(=O)CCC(=O)N2CCN(Cc3ccccc3)CC2)s1` was tested. Which “hERG current change (%, negative = inhibition) at 1uM” value did it give?
The value was 11.9%.

How did the “hERG current change (%, negative = inhibition) at 1uM” value turn out when `CNC(=O)CSc1nnc(-c2ccncc2)n1Cc1ccccc1` was run?
The value was 17.9%.

With `CCOC(=O)c1c(C)n(-c2ccc(C)cc2)c2c(C(C(C)=O)C(=O)O)c(Br)c(O)c(O)c12` (stereo not shown) as the compound, how does the “hERG current change (%, negative = inhibition) at 1uM” value read?
The value was 0.244%.

With `COc1ccc2sc(-c3ccccc3OC)c(-c3ccc(OC)c(F)c3)c2c1` as the compound, how does the “hERG current change (%, negative = inhibition) at 1uM” value read?
Its value is 10.6%.

For `CCC(=O)CCC(=O)c1ccc2ccccc2c1`, which “hERG current change (%, negative = inhibition) at 1uM” value is on record?
The value was 9.34%.

With `CC(C)(C)OC(=O)[C@H](Cc1ccccc1)NC(=O)c1nc[nH]c1C(=O)NC1CC[NH2+]CC1.[Cl-]` as the compound, how does the “hERG current change (%, negative = inhibition) at 1uM” value read?
Its value is 11.9%.

With `CCC(C(=O)NCCc1ccc(OC)c(OC)c1)n1nc(C)n2c(cc3occc32)c1=O` (stereo not shown) as the compound, how does the “hERG current change (%, negative = inhibition) at 1uM” value read?
Its value is 8.96%.

`Cc1ccc2nc(NC(=O)c3cccs3)sc2c1` was tested. Which “hERG current change (%, negative = inhibition) at 1uM” value did it give?
Its value is 7.6%.

For `COC(=O)N/N=C\c1ccccc1OC/C=C/c1ccccc1`, which “hERG current change (%, negative = inhibition) at 1uM” value is on record?
The value was 9.39%.

For `CSc1c(CC(=O)Nc2ccccc2Cl)n(Cc2ccccc2)c2ccccc12`, which “hERG current change (%, negative = inhibition) at 1uM” value is on record?
Its value is 8.62%.

`CCN(CC)CCN(C(=O)C1=COCCO1)c1nc2ccc(C)cc2s1.Cl` was tested. Which “hERG current change (%, negative = inhibition) at 1uM” value did it give?
Its value is -34%.

For `CCC1CCCCN1CCCNC(=O)C(C)n1nc(C)c2sc3ccccc3c2c1=O` (stereo not shown), which “hERG current change (%, negative = inhibition) at 1uM” value is on record?
Its value is -3.95%.

For `O=C(Nc1ccc2c(c1)CCC2)c1ccc(Br)s1`, which “hERG current change (%, negative = inhibition) at 1uM” value is on record?
The value was 27.1%.

How did the “hERG current change (%, negative = inhibition) at 1uM” value turn out when `O=C(/C=C/c1ccccc1)Nc1ccc(CN2CCOCC2)cc1` was run?
Its value is -25.4%.

Which “hERG current change (%, negative = inhibition) at 1uM” value does the source give for `O=C1COc2ccc(C(=O)NCc3ccco3)cc2N1` here?
The value was 10.1%.

With `Cc1c(C(=O)N2CC3(CC(c4cccc(NC(=O)CC(c5ccccc5)c5ccccc5)c4)=NO3)C[C@@H]2C(N)=O)cc([N+](=O)[O-])cc1[N+](=O)[O-]` (stereo partly shown) as the compound, how does the “hERG current change (%, negative = inhibition) at 1uM” value read?
The value was 16.5%.

`O=C(O)c1ccc(S(=O)(=O)NC2CCCCC2)cc1` was tested. Which “hERG current change (%, negative = inhibition) at 1uM” value did it give?
The value was 29.9%.

`COC(=O)CSc1nnc([C@H](Cc2ccccc2)NC(=O)OC(C)(C)C)o1` was tested. Which “hERG current change (%, negative = inhibition) at 1uM” value did it give?
Its value is 8.59%.

Which “hERG current change (%, negative = inhibition) at 1uM” value does the source give for `Cc1cc(Cl)ccc1OCC(=O)OCC(=O)N(CC(C)C)c1c(N)n(Cc2ccccc2)c(=O)[nH]c1=O` here?
Its value is 21.6%.

For `COc1cc(/C=C2/SC(=O)N(Cc3ccccc3)C2=O)ccc1OCc1ccncc1`, which “hERG current change (%, negative = inhibition) at 1uM” value is on record?
Its value is 14.1%.

Which “hERG current change (%, negative = inhibition) at 1uM” value does the source give for `CCn1c(/C=C/c2cc[n+](C)cc2)nc2ccccc21.[I-]` here?
Its value is 6.03%.

`Cc1c(C(c2ccc(Br)cc2)c2c(O)c3ccccc3oc2=O)c(=O)n(-c2ccccc2)n1C` (stereo not shown) was tested. Which “hERG current change (%, negative = inhibition) at 1uM” value did it give?
Its value is 6.58%.

Which “hERG current change (%, negative = inhibition) at 1uM” value does the source give for `CCc1ccc(CCC(=O)Nc2ccc(C(C)=O)cc2)o1` here?
Its value is 14.5%.

With `Cc1ccc(F)cc1S(=O)(=O)Nc1cccc(C(=O)N2CCCC(C(N)=O)C2)c1` (stereo not shown) as the compound, how does the “hERG current change (%, negative = inhibition) at 1uM” value read?
The value was 8.23%.

How did the “hERG current change (%, negative = inhibition) at 1uM” value turn out when `CCN(Cc1ccccc1)C(=O)Cc1ccc(OC)c(S(=O)(=O)N2CCOCC2)c1` was run?
The value was -2.57%.

`CCc1noc(C)c1C(=O)Nc1sc(C(=O)N(C)C)c(C)c1C(=O)OC` was tested. Which “hERG current change (%, negative = inhibition) at 1uM” value did it give?
Its value is -6.16%.

With `CCCC(=O)OCC(=O)Nc1ccc([N+](=O)[O-])cc1C#N` as the compound, how does the “hERG current change (%, negative = inhibition) at 1uM” value read?
Its value is 13.7%.

Which “hERG current change (%, negative = inhibition) at 1uM” value does the source give for `COc1cc(NC(=O)CCCn2c(=S)[nH]c3ccccc3c2=O)cc(OC)c1OC` here?
The value was 4.64%.
